What is called pIC50 is the negative decadic logarithm of the IC50, by convention in mol/L.

pIC50: −log10 of the molar value.

Sequence of UniProt O14744 (O14744 whole entry): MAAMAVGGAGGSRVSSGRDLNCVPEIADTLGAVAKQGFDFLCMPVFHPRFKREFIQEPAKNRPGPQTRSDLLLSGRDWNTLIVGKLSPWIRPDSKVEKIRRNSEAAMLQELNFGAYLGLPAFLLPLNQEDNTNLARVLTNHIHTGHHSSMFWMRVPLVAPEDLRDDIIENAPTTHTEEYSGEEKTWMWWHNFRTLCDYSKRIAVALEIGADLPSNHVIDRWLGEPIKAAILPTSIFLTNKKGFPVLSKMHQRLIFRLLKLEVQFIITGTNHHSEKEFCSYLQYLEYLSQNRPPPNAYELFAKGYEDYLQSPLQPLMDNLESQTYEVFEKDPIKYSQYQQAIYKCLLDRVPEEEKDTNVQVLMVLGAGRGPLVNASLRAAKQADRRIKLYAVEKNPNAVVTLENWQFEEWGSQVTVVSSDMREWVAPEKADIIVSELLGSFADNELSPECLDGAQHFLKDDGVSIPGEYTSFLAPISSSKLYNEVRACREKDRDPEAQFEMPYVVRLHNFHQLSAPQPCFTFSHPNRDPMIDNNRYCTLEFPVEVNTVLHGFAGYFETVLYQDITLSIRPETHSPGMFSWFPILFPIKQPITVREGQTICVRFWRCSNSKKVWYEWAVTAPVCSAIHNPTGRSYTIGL
Sequence of UniProt O14744 (Q9BQA1 whole entry partner): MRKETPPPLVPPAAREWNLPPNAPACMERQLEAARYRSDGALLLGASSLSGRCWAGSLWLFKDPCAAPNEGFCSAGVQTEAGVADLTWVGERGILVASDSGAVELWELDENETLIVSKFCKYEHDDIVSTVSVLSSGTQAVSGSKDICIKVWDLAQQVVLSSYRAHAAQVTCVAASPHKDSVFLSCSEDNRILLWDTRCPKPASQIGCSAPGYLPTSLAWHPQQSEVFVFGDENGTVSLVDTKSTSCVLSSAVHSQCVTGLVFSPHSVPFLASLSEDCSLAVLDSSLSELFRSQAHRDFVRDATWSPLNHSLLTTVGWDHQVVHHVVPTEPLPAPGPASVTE

For the experiment, the target named is PRMT5/MEP50 Complex (Homo sapiens (Human), UniProt O14744). As to the kind of experiment: PRMT5 inhibition based on TR-FRET assay. It counts as biochemical. The following applies: 32 nM PRMT5:MEP50, 50 nM Histone-H4 peptide, 1 μM SAM. The text has this: PRMT5 Inhibition Based on TR-FRET Assay:
Protein arginine methyltransferase 5 (PRMT5) is a type II arginine methyltransferase that catalyze mono- and symmetric demethylation on arginine residues of histone or non-histone proteins in presence of S-adenosylmethionine (AdoMet or SAM) a cofactor responsible for donating the methyl group. PRMT5 is reported to be overexpressed in several human cancers. To identify compounds that inhibit the PRMT5 and decrease its activity, a TR-FRET based assay has been established. Time-resolved fluorescence resonance energy transfer (TR-FRET) HTS assays are homogeneous proximity assays where the interaction of two dye-labeled binding partners is detected by the energy transfer between a donor and an acceptor dye and the subsequent light emission by the acceptor dye. PRMT5 catalyzes Histone H4 peptide which is biotin tagged to the Lysine amino acid at carboxyl end, in presence of S-adenosyl-1-methionine (SAM) to methylate the peptide. The antibody specific to mono methylated H4 peptide (H4R3) with Ig conjugate binds to the methylated peptide, indirectly binding to the Europium lanthanide. SureLight Allophycocyanin-Streptavidin binds to the biotin tag of the peptide, therefore accepting the energy transferred from the Europium lanthanide. This energy transfer between Europium to SureLight Allophycocyanin is a direct measure of the activity/inhibition of the PRMT5 enzyme.
Assay buffer: 20 mM BICINE (pH 7.6), 25 mM NaCl, 2 mM DTT, 0.01% Tween-20 and 0.01% BSA.
The compound dilutions were prepared as 7.5% DMSO stock solutions in assay buffer. To 2 μL (7.5×) of test compound, 5 μL of PRMT5 enzyme prepared in assay buffer (Final concentration of 32 nM in 15 μL reaction volume) was added and allowed for 30 minutes pre-incubation time in a white polystyrene 384-well plate at room temperature. […] The plates were then read on Victor-3 with Excitation at 340 nm and Emissions collected at 615 and 665 nm in TR-FRET protocol. […]
On the technique in general: Time-resolved FRET reads energy transfer from a long-lived donor to a nearby acceptor.
As for `N#Cc1ccc(CN2CCN(CC(O)CN3CCc4ccccc4C3)C2=O)cc1` (single isomer, unassigned) [Example 18a, 4-((3-(3-(3,4-dihydroisoquinolin-2(1H)-yl)-2-hydroxypropyl)-2-oxoimidazolidin-1-yl)methyl)benzonitrile], the pIC50 was 7.40.
Compound `Cc1ccc(CN2CC(C)(C)N(CC(O)CN3CCc4ccccc4C3)C2=O)cc1` (stereo not drawn) [Example 5, 3-(3-(3,4-dihydroisoquinolin-2(1H)-yl)-2-hydroxypropyl)-4,4-dimethyl-1-(4-methylbenzyl)imidazolidin-2-one] showed a pIC50 of 6.96.
Compound `O=C(Nc1ccc(CN2CCN(C[C@H](O)CN3CCc4ccccc4C3)C2=O)nc1)C1CCOCC1` [Example 107, (R)-N-(6-((3-(3-(3,4-dihydroisoquinolin-2(1H)-yl)-2-hydroxypropyl)-2-oxoimidazolidin-1-yl)methyl)pyridin-3-yl)tetrahydro-2H-pyran-4-carboxamide] showed a negative logarithm of the IC50 (pIC50) of 7.00. The pIC50 values of the last two compounds are within 0.2 log units of each other.

Values taken from US11365205B2 (Aurigene Discovery Technologies Limited, priority 2018, dated 2022).
